We go through 80 compounds from article PMC12040169 (PLOS Biology, 2025).

The other results are listed elsewhere or left out.

This assay concerns T1, C. trachomatis L2/434/Bu expressing GFP (CTL2-GFP).
T1 construct: L2/434/Bu GFP intracellular growth in HeLa cells
Details: species or system HeLa; C. trachomatis total inclusion area by high-content imaging, normalised to DMSO. The note with it: total inclusion area; 28.5 h, 10 µM; inhibitor. The gist of the method:
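Host cell viability was gauged from Hoechst-stained nuclei counts, while chlamydial growth was taken from total inclusion area and inclusion number per well. Cells were fixed and imaged by high-content microscopy once bulk GFP and resorufin fluorescence had been measured.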
For the compound `CCc1c(C)nc2c(C(=O)NCCCN3CCCC3=O)cnn2c1C` [CBK162128], the “% of control remaining” value was 79.1086.
Next, `N#Cc1cccc(C(=O)NCCc2nnc3n2CCCCC3)c1` [CBK259813]: 36.7616; `CCCCN(C=O)c1c(CC)nc2c(OCc3ccccc3C)cccn12` [CBK147639]: 91.3249; `Nc1ncnc(Nc2ccc(F)cc2Cl)c1[N+](=O)[O-]` [CBK267255]: 106.53.
`NS(=O)(=O)c1cccc(NC(=O)c2cccs2)c1` [CBK024419]: the “% of control remaining” value is recorded as 81.951.
On to `O=C(O)COc1ccc(S(=O)(=O)Nc2ccc(F)cc2)cc1` [CBK268442], for which the “% of control remaining” value is on record as 96.8045.
As to `CC(=O)c1ccc(-c2cnc(N)c(NC3CCCCC3)n2)s1` [CBK063596], the “% of control remaining” value is listed as 88.6656.
To `COc1ccc(-c2cc(C(=O)NCc3ccc(F)cc3)cnc2-c2cccc(C)c2)cc1` [CBK036702] belongs 122.129; to `COc1cccc(CN2CCC(c3ncc(C(=O)Nc4ccc(F)cc4)c(C)n3)CC2)c1` [CBK285630], 81.4186; to `Cc1nc2cc(OCc3nc(C(=O)NCC(O)CO)co3)ccc2s1` (centres unmarked) [CBK307067], 68.3876.
In the case of `Cc1cc(-c2cccs2)c(C#N)c(SCc2cccnc2)n1` [CBK270172], the “% of control remaining” value stood at 103.902.
To `COC(=O)c1cc(NC(=O)CC2Sc3ccccc3NC2=O)cc(C(=O)OC)c1` (centres unmarked) [CBK266260] belongs 108.888; to `CN(CCc1ccccc1)Cc1nc2ccccc2c(=O)[nH]1` [CBK283204], 100.19; to `COc1cncc(-c2cc(Nc3ccc(OC)c(OC)c3)ncn2)c1` [CBK090824], 65.7039.
To `OC(CNCCc1c[nH]c2ccccc12)COc1cccc2c1CCCC2` (centres unmarked) [CBK003831] belongs 67.3895; to `COc1cc(CNC2CCCCCC2)c([N+](=O)[O-])cc1OC` [CBK262194], 126.009; to `O=C(O)c1cccnc1SC1CC(=O)N(c2ccc(F)cc2)C1=O` (centres unmarked) [CBK265582], 101.887.
To `Cc1ccc(-c2nccnc2OCc2ccc3c(c2)OCO3)c(C)c1` [CBK106982] belongs 85.7866.
In the case of `CC1C(=O)N2CCCc3cc(S(=O)(=O)NCc4ccc5c(c4)OCO5)cc1c32` (centres unmarked) [CBK294419], the “% of control remaining” value is listed as 125.325.
For `NS(=O)(=O)c1ccc(Nc2ncccc2[N+](=O)[O-])cc1` [CBK261724], the “% of control remaining” value worked out at 81.0839.
Regarding `CC(C)(O)C#Cc1ccc(C(=O)N2CCCC2C(=O)O)s1` (centres unmarked) [CBK286869], the “% of control remaining” value worked out at 71.587.
To `Cc1noc(C)c1CN1CCC(Cc2ccccc2)CC1` [CBK305752] belongs 63.0423; to `CCOC(=O)c1[nH]c2ccccc2c1NC(=O)c1ccc(Cl)c(C)c1` [CBK160146], 104.438.
Turning to `CCOc1ccccc1C(=O)Nc1cnc(-c2cccc(OC(F)(F)F)c2)c(-c2cccnc2)n1` [CBK036952], the “% of control remaining” value stood at 81.559.
Next, `O=C(NCC(c1ccccc1)N1CCOCC1)c1cnc(-c2ccc(F)cc2)c(-c2ccco2)c1` (centres unmarked) [CBK037531]: 129.129; `COc1ccc(N2CCN(CC(=O)Nc3ccc(Cl)cc3C(=O)c3ccccc3)CC2)cc1` [CBK265743]: 82.1248.
Regarding `CC(C)(CN)CN(Cc1ccc(Cl)cc1Cl)C(=O)NCCc1c[nH]c2ccccc12` [CBK000460C], the “% of control remaining” value is on record as 54.9762.
Next, `CC(=O)N1c2ccc(C(O)CN3CCCC(C)C3)cc2CC1C` (centres unmarked) [CBK282922]: 100.497; `CC(=O)NC1CCN(c2nc(N(C)C)nc3c2CCN(C(C)=O)C3)CC1` [CBK307079]: 75.507.
To `Cc1ccccc1-n1ncc2c(=O)n(Cc3ccccc3)cnc21` [CBK287690] belongs 80.4963.
Turning to `O=C1CCCN1CCCNC(=O)N1CCN(CCc2ccccc2)CC1` [CBK158932], the “% of control remaining” value is recorded as 107.615.
`CC(CN(C)C(=O)Cn1cccc(C(=O)Nc2ccc(F)cc2)c1=O)c1ccccc1` (centres unmarked) [CBK286065]: the “% of control remaining” value came out at 84.2632.
`COc1ccc(C(F)(F)F)cc1N` [CBK038366]: the “% of control remaining” value amounted to 60.543.
Turning to `CC1Cc2ccccc2N1C(=O)Cn1c(CCCO)nc2ccccc21` (centres unmarked) [CBK297548], the “% of control remaining” value amounted to 104.196.
Turning to `COc1cc(-c2cn3ccnc3c(N[C@H](CO)C(C)C)n2)cc(OC)c1OC` [CBK066220], the “% of control remaining” value was determined as 106.011.
For the compound `Cc1n[nH]c(C)c1CC(=O)NC(Cc1ccsc1)c1ccccn1` (centres unmarked) [CBK285271], the “% of control remaining” value amounted to 134.779.
Next, `O=C(O)c1cccc(NS(=O)(=O)c2cccc(Cl)c2Cl)c1` [CBK155686]: 83.0495; `COc1cc(S(=O)(=O)N2CCN(S(=O)(=O)c3cccc([N+](=O)[O-])c3)CC2)ccc1Cl` [CBK266285]: 98.6535.
In the case of `CN(C)Cc1c(O)ccc2c(=O)c(Oc3ccc(-c4ccccc4)cc3)c(C(F)(F)F)oc12` [CBK264519], the “% of control remaining” value was determined as 112.257.
As for `Cc1cc2cc(C(=O)N3CCC(c4c(C(=O)NC(C)C)sc5ccccc45)C3)ccc2o1` (centres unmarked) [CBK285873], the “% of control remaining” value stood at 24.2608.
Turning to `Cc1nc(SCCC(=O)Nc2ccccc2C#N)nc2cc3c(cc12)CCC3` [CBK268812], the “% of control remaining” value was 107.158.
Next, `COc1ccc(C(=O)Nc2nc3c(OC)ccc(C)c3s2)cc1` [CBK287615]: 78.1267; `O=S(=O)(Nc1nc(-c2sccc2Cl)cs1)c1cc(Br)c(Cl)s1` [CBK200030]: 101.917; `CN1C[C@H]2N(C)C(=O)c3ccccc3C(=O)[C@@]2(C)C1` [CBK283482]: 118.501.
As to `O=C(O)c1cccc(-n2ncc(-c3ccsc3)n2)c1` [CBK112859], the “% of control remaining” value came out at 102.611.
Next, `COCCn1c(=O)n(Cc2ccccc2F)c2cccnc21` [CBK283965]: 106.837; `COCc1ccc(C(=O)N2CCC(c3cc4cnccc4[nH]3)CC2)o1` [CBK283073]: 102.827; `Cc1ccc(C)c(NC(=O)N[C@@H](CC(C)C)C(=O)O)c1` [CBK286678]: 76.7825.
To `O=C(CSCC(=O)Nc1ccc2ccccc2c1)NCC1CCCO1` (centres unmarked) [CBK058183] belongs 70.9214; to `O=C(/C=N/O)Nc1cc(C(F)(F)F)ccc1Cl` [CBK288405], 61.9704; to `CCCC1C2C=CC(C2)C1/C=N/O` (centres unmarked) [CBK009671], 95.3269.
To `Cc1ccc(C(=O)COC(=O)CCN2C(=O)C3C4CCC(C4)C3C2=O)cc1[N+](=O)[O-]` (centres unmarked) [CBK264096] belongs 103.261; to `Cn1c(O)c(CCNc2cc([C@H]3C[C@@H](O)C3)nc(N)n2)cnc1=O` [CBK306956], 40.8859; to `CC1=NN(c2ccc(S(N)(=O)=O)cc2)C(=O)/C1=C\c1ccc(-c2ccc(S(N)(=O)=O)cc2)o1` [CBK263476], 95.4513.
`O=C(O)CC1SC(Nc2ccccc2F)=NC1=O` (centres unmarked) [CBK059096]: the “% of control remaining” value is given as 78.918.
To `CCNc1cncc(-c2ccc(C(N)=O)cc2)n1` [CBK065414] belongs 95.1386; to `Nc1ccc2ccc(Cl)nc2n1` [CBK039198], 3.9745; to `O=C(NCCN1CCC(O)(c2ccc(F)cc2)CC1)c1cccs1` [CBK283163], 98.5657.
As to `COCCCNCC#CCOc1ccccc1OC` [CBK267419G], the “% of control remaining” value is recorded as 92.705.
Consider `O=C(O)C1C2C=CC(O2)C1C(=O)NCC1CCCO1` (centres unmarked) [CBK286917], for which the “% of control remaining” value is 82.8003.
For the compound `Cc1ccc([N+](=O)[O-])cc1NC(=O)CN(Cc1ccc(Cl)cc1)S(C)(=O)=O` [CBK267981], the “% of control remaining” value amounted to 65.7807.
As for `COc1cc(C#N)ccc1Oc1ccc([N+](=O)[O-])cc1C(F)(F)F` [CBK002544], the “% of control remaining” value is 83.6713.
To `CCC1CCCCN1C(=O)c1c(Cl)cccc1Cl` (centres unmarked) [CBK081303] belongs 95.887; to `COc1ccc(C(O)CNC(C)C)c2c(C)c(C)oc12` (centres unmarked) [CBK011885C], 79.3355.
To `CC(SCC(=O)Nc1ccc(F)cc1)c1nc2ccccc2c(=O)[nH]1` (centres unmarked) [CBK269200] belongs 75.5366; to `CCCC(=O)c1ccc(S(=O)(=O)N2CCCN(Cc3c[nH]nc3-c3ccccc3)CC2)cc1` [CBK062916], 49.3429; to `COc1ccc(CC(=O)N2CCCC(c3cc4ncccc4[nH]3)C2)cc1` (centres unmarked) [CBK283418], 103.576.
To `CCNc1cc(N2CCN(C)CC2)ccc1NS(=O)(=O)c1ccc(F)cc1F` [CBK001496C] belongs 91.2982; to `Cc1ccc(-c2n[nH]c(=S)n2CCC(=O)N2CCC(c3c[nH]c4ccccc34)CC2)cc1` [CBK296739], 84.8294.
As for `O=C1/C(=C/c2c(NCCc3ccccc3)nc3ccccn3c2=O)SC(=S)N1Cc1ccco1` [CBK264674], the “% of control remaining” value came to 111.399.
Take `COc1ccc([N+](=O)[O-])cc1NC(=O)CSCc1ccc(Br)cc1` [CBK268272]: the “% of control remaining” value was found to be 111.374.
Next, `N[C@@H]1CCCN(C(=O)C2CC2)[C@H]1c1ccccc1F` [CBK281563]: 76.1158; `O=C(c1ccco1)N1CCN(C(=O)c2ccco2)CC1` [CBK068272]: 98.9097; `CC1(C)NC(=O)N(CCCC(=O)NCc2coc(-c3cccs3)n2)C1=O` [CBK237157]: 86.7347.
In the case of `O=C1c2ccc(OCCOc3ccc4c(c3)C(=O)N(c3ccc(O)cc3)C4=O)cc2C(=O)N1c1ccc(O)cc1` [CBK262668], the “% of control remaining” value is recorded as 99.7392.
Take `CC1CC(N(C(=O)c2cccc(Br)c2)c2ccccc2)c2ccccc2N1` (centres unmarked) [CBK262966]: the “% of control remaining” value was 106.726.
Take `CC[C@H](Cn1c(=O)oc2ccccc21)NC(=O)Cc1ccsc1` [CBK284543]: the “% of control remaining” value is recorded as 99.3412.
Next, `CC(C)Oc1ccc(C(F)(F)F)cc1N` [CBK028895C]: 49.3509.
Next, `O=C(CNC(=O)c1ccccc1)N/N=C/c1ccc(Br)cc1` [CBK260957]: 104.999.
To `COc1ccc(-c2ccc(OC)cc2C(=O)Nc2ccc(Cn3cncn3)cc2)cc1` [CBK285588] belongs 79.4874.
